Data from PubChem BioAssay (Tox21).
Where “and” joins values, the source holds several entries; their conditions need not be identical. Identical values can stand only once. This list was built around the results that the source calls inconclusive (neither active nor inactive); the mix of calls is not that of the screen. A call without a number means that no potency is given here. For some of these results: Potencies of inconclusive entries are doubtful fits and often do not repeat. Some compounds were tested as several samples or in several runs, with calls that do not always agree. Calls of active or inactive are those of the source. Unless noted, calls follow the shape of the dose curve; as a rule, active = well fitted curve in the direction sought with a large enough effect in the repeat runs; inconclusive = weak or mixed curves; inactive = no such curve, though single readings can be large; an effect the other way counts as inactive or inconclusive.

Key:
[1] = qHTS assay to identify small molecule antagonists of the androgen receptor (AR) signaling pathway using the MDA cell line in the presence of 0.5 nM R1881 - cell viability counter screen (AID 1259242); also: nearly all actives have a fitted effect of over 45% in size
Summary of the method: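 Cytotoxicity toward MDA-kb2 cells is measured by CellTiter-Fluor live-cell protease fluorescence after 16 hr compound exposure at 37C in the presence of 0.5 nM R1881 stimulator.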

[2] = qHTS assay to identify small molecule agonists of the TGF-beta/Smad signaling pathway (AID 1346859; active = well fitted activation curve with a large enough effect in the signal ratio in the repeat runs, not every such curve was filed as active; inconclusive = weak or mixed curves; the % refers to the signal ratio; also: potency is read from the fitted curve at half-maximal effect)
Summary of the method: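 SBE-bla HEK293T cells plated overnight, then compound exposure for 5 h at 37 C. Beta-lactamase reporter read with LiveBLAzer B/G FRET substrate after 2 h at room temperature, fluorescence at 405 nm excitation, 460/530 nm emission.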

[3] = qHTS assay to identify small molecule antagonists of the sonic hedgehog signaling (Shh) pathway - cell viability counter screen (AID 1259367); also: nearly all actives have a fitted effect of over 55% in size
Summary of the method: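 After a 4 hr settling period, 3T3 Gli1-Luc cells were treated with DMSO-dissolved chemicals and conditioned medium, kept 24 hr at 37C in 5% CO2, and assayed for viability by CellTiter-Fluor fluorescence following 1 hr reagent incubation.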

[4] = qHTS assay to identify small molecule antagonists of the androgen receptor (AR) signaling pathway - cell viability counter screen (AID 743033; also: nearly all actives have a fitted effect of over 45% in size); conditions: AR-bla HEK293 viability, CellTiter-Glo luminescence, 16 h; activity change, negative = cytotoxicity: at 58.5 µM (top of the series) unless noted
[5] = qHTS assay to identify small molecule antagonists of the estrogen receptor alpha (ER-alpha) signaling pathway using the BG1 cell line - cell viability counter screen (AID 743081); conditions: BG1Luc4E2 viability, CellTiter-Fluor, 22 h; activity change, negative = cytotoxicity: at 70.3 µM (top of the series) unless noted;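 also: compound given together with 17beta-estradiol as the ER stimulus; nearly all actives have a fitted effect of over 45% in size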; also: potency is read from the fitted curve at half-maximal effect
[6] = qHTS assay to identify small molecule agonists of the sonic hedgehog signaling (Shh) pathway - cell viability counter screen (AID 1259366); also: nearly all actives have a fitted effect of over 50% in size; also: potency is read from the fitted curve at half-maximal effect
Summary of the method: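 NIH/3T3-derived Gli1-Luc reporter cells, 2,000 per well, received compound after 4 h and were treated about 23 h at 37C. Viability measured in the same wells by CellTiter-Fluor fluorescence after 1 h.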

[7] = qHTS assay to identify small molecule agonists of the estrogen receptor alpha (ER-alpha) signaling pathway in the presence of an antagonist - cell viability counter screen (AID 1259386);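 also: cells exposed to compounds for 22 h at 37 °C before the viability read; nearly all actives have a fitted effect of over 30% in size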; also: potency is read from the fitted curve at half-maximal effect
Summary of the method: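 Cells are starved of estrogens for 5 days in charcoal-stripped serum, seeded for 24hr and co-treated with ICI-182,780 (10.0nM final) and test compounds. After 22hr at 37C, viability is read as CellTiter-Fluor fluorescence.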

[8] = target: Progesterone receptor (Homo sapiens) (UniProt P06401); experiment: qHTS assay to identify small molecule agonists of the progesterone receptor (PR) signaling pathway (AID 1346784; calls by dose curve; also: nearly all actives have a fitted effect of over 30% in size; also: potency is read from the fitted curve at half-maximal effect); conditions: PR-UAS-bla HEK293T, beta-lactamase FRET ratio, 16 h; activation: at 92.4 µM (top of the series) unless noted
Sequence of UniProt P06401 (P06401 whole entry, looked up): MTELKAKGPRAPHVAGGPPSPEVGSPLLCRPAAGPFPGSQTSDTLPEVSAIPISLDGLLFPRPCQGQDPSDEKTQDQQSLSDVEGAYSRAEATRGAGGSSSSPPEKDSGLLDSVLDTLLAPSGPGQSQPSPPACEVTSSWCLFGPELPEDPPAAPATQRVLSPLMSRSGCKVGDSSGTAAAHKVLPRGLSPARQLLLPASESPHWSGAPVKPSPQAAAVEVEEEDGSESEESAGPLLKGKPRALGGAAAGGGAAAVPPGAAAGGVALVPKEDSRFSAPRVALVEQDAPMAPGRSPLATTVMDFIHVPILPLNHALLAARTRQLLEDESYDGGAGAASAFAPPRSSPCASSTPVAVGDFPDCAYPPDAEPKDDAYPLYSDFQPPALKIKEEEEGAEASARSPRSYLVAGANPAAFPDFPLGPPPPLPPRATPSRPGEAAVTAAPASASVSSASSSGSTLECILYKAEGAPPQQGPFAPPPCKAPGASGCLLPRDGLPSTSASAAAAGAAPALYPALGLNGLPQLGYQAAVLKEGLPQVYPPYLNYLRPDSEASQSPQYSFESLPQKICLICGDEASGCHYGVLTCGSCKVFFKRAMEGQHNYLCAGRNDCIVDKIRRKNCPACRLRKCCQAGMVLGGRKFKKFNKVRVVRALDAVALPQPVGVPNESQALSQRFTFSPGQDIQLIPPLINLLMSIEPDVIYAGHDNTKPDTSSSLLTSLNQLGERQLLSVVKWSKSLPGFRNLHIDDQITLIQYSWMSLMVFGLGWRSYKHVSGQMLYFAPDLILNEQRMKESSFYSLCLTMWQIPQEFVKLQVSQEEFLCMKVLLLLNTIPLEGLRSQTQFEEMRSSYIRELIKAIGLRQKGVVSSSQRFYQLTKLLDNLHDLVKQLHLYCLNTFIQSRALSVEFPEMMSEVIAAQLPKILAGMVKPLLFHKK
Summary of the method: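 PR-UAS-bla HEK 293T cells (beta-lactamase reporter under UAS) in 2% charcoal-stripped FBS, dosed with 23 nL compound after 6 hr, incubated 16hr at 37C. LiveBLAzer B/G FRET substrate added, fluorescence read after 2 hours.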

[9] = Caspase-3/7 induction in HepG2 cells by small molecules, qHTS cell viability counter screen (AID 1346981); also: nearly all actives have a fitted effect of over 30% in size; also: potency is read from the fitted curve at half-maximal effect
Summary of the method: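 Steps: seed 2,000 HepG2 cells per well; incubate 5 hr at 37 C; pin-add compounds in DMSO; incubate 16 hr; add CellTiter-Fluor; after 1 hr at 37 C and 5% CO2, read fluorescence.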

[10] = qHTS RealTime-Glo MT Cell Viability Assay in HEK293 cells - 0 hour (AID 1224880); also: nearly all actives have a fitted effect of over 45% in size; also: potency is read from the fitted curve at half-maximal effect; as to activity change, negative = cytotoxicity: top concentration of the series differs between compounds
Summary of the method: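 Nonlytic bioluminescent viability monitoring. HEK293 at 600 cells/well with reagent; 5 h settle; compound transfer by pintool; plates held at 37 C and read at set time points.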

[11] = qHTS assay to identify small molecule antagonists of the thyroid receptor (TR) signaling pathway (AID 743065); also: nearly all actives have a fitted effect of over 55% in size; also: potency is read from the fitted curve at half-maximal effect
Summary of the method: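 GH3.TRE-Luc rat pituitary cells carrying two TR response elements driving luciferase were plated for 4 h, given compound plus 1 nM T3 (final), and incubated 23.5 h at 37 C. ONE-Glo luminescence measured reporter inhibition; CellTiter-Fluor fluorescence tracked cytotoxicity.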

[12] = qHTS assay to identify small molecule agonists of the peroxisome proliferator-activated receptor delta (PPARd) signaling pathway - cell viability counter screen (AID 743211); conditions: PPARd-bla HEK293H viability, CellTiter-Glo luminescence, 17 h; activity change, negative = cytotoxicity: at 62.6 µM (top of the series) unless noted; also: nearly all actives have a fitted effect of over 55% in size; also: potency is read from the fitted curve at half-maximal effect
Summary of the method: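 PPARd-bla HEK293H cells (3000/well) were pre-incubated 5 h at 37 C, then exposed to compound for 17 h at 37 C. After 2 h with LiveBLAzer substrate, CellTiter-Glo was added to the same wells; luminescence read after 30 min at room temperature.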

[13] = qHTS assay to identify small molecule agonists of the hypoxia (HIF-1) signaling pathway (AID 1224846; active = well fitted activation curve with a large enough effect in the signal ratio in the repeat runs, not every such curve was filed as active; inconclusive = weak or mixed curves; the % refers to the signal ratio; also: potency is read from the fitted curve at half-maximal effect); conditions: HRE-bla ME-180 cells, beta-lactamase ratio, 17 h; activation: at 76.8 µM (top of the series) unless noted
Summary of the method: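 Steps: seed ME-180 HRE-bla cells (2,000/well, 0.5% dialyzed FBS); incubate 5 hrs at 37C; pin-transfer compounds or DMSO; incubate 17 hrs; add LiveBLAzer B/G substrate CCF4-AM; measure reporter activation by FRET.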

[14] = qHTS assay to identify small molecule antagonists of the androgen receptor (AR) signaling pathway using the MDA cell line - cell viability counter screen (AID 743041; also: nearly all actives have a fitted effect of over 45% in size; also: potency is read from the fitted curve at half-maximal effect); conditions: MDA-kb2 viability, CellTiter-Fluor, 16 h, cells co-treated with R1881 androgen agonist; viability change, negative = cytotoxic: at 70.3 µM (top of the series)
Summary of the method: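 Viability counter screen run alongside the AR antagonist reporter: cells seeded 5 h before compound, R1881 added, 16 h incubation at 37C without CO2, fluorescent CellTiter-Fluor signal quantified.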

[15] = qHTS assay to identify small molecule antagonists of the peroxisome proliferator-activated receptor gamma (PPARg) signaling pathway - cell viability counter screen (AID 743194); conditions: PPARg-bla HEK293H viability, CellTiter-Glo luminescence, 17 h, co-treated with 50 nM rosiglitazone; activity change, negative = cytotoxicity: at 62.6 µM (top of the series) unless noted; also: nearly all actives have a fitted effect of over 55% in size; also: potency is read from the fitted curve at half-maximal effect
Summary of the method: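 PPARg-UAS-bla HEK293H cells were plated, rested 5 h at 37 C, then treated with compounds plus rosiglitazone (50 nM final) for 17 h at 37 C; viability was then read by CellTiter-Glo luminescence after 30 min at room temperature.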

[16] = qHTS assay to identify small molecule antagonists of the estrogen receptor beta (ER-beta) signaling pathway - cell viability counter screen (AID 1259382); also: nearly all actives have a fitted effect of over 55% in size; also: potency is read from the fitted curve at half-maximal effect;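 as to activity change, negative = cytotoxicity: HEK293T cells carrying ER-beta-UAS-bla reporter stimulated with estradiol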
Summary of the method: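 Following a 6 hr plating period, HEK293T cells carrying a UAS-driven beta-lactamase reporter under ER-beta control received compounds and 1nM E2 (final). After 16 hr at 37C and 2 hr substrate loading, CellTiter-Glo luminescence indicated viability.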

[17] = A CellTox Green Cytotoxicity Assay to monitor cytotoxicity in HepG2 cells - 0 hour (AID 1224882); also: potency is read from the fitted curve at half-maximal effect; nearly all actives have a fitted effect of over 35% in size
Summary of the method: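 Real-time, homogeneous cytotoxicity readout: dead-cell DNA staining by CellTox Green in HepG2 monolayers, fluorescence measured at timed intervals up to 40 h of continuous compound exposure.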

[18] = target: Voltage-gated inwardly rectifying potassium channel KCNH2 (Homo sapiens) (UniProt Q12809); experiment: Human Ether-a-go-go-Related Gene (hERG) channel small molecule antagonists: fluorescence cell-based qHTS assay (AID 1671200);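 also: hERG-expressing U2OS cells given a thallium stimulus after FluxOR II dye loading; nearly all actives have a fitted effect of over 50% in size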
Sequence of UniProt Q12809 (Q12809 whole entry, looked up): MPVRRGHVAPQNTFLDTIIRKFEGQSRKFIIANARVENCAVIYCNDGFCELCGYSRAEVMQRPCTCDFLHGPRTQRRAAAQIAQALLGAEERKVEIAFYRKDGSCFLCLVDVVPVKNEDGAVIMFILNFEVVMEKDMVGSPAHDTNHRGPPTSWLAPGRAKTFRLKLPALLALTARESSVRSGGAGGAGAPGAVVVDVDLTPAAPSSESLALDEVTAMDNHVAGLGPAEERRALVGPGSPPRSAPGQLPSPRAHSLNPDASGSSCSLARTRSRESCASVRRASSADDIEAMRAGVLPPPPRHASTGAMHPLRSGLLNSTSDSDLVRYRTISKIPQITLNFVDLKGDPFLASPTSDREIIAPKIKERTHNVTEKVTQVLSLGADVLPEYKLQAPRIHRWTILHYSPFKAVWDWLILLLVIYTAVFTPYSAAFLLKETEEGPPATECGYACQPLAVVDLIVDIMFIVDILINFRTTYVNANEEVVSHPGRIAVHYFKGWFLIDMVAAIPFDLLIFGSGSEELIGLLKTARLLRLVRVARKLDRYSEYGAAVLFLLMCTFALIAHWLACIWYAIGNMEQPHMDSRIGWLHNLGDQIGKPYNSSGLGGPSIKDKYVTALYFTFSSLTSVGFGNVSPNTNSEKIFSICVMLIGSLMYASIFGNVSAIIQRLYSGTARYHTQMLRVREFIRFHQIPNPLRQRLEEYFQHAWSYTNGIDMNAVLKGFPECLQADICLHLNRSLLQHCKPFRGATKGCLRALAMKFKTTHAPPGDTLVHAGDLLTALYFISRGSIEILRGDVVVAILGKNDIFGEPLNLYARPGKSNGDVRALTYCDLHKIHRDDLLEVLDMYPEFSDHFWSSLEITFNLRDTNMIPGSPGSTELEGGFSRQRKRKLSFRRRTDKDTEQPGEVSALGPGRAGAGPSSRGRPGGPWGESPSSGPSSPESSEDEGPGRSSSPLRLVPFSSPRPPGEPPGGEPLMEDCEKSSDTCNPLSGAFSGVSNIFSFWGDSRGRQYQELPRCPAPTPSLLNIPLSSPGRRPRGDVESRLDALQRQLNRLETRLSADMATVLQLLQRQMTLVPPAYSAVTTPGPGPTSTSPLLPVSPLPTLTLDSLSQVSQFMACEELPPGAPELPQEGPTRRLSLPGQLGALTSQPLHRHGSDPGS
Summary of the method: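 hERG-U2OS cells plated overnight at 37 C, loaded with FluxOR II dye 1 h at RT in dark; after 10 min, thallium stimulus added. Fluorescence (480/540 nm) read kinetically for 2 min at 1 s intervals.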

[19] = qHTS RealTime-Glo MT Cell Viability Assay in HepG2 cells - 8 hour (AID 1224873); also: nearly all actives have a fitted effect of over 55% in size; also: potency is read from the fitted curve at half-maximal effect
Summary of the method: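 HepG2 cells mixed with RealTime-Glo MT reagents (NanoLuc plus cell-permeant prosubstrate) were seeded at 600 cells/well, incubated 5 h at 37 C/5% CO2, then pinned with compounds in DMSO; nonlytic luminescence tracked viability during 40 h treatment.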

[20] = A CellTox Green Cytotoxicity Assay to monitor cytotoxicity in HEK293 cells - 24 hour (AID 1224875)
Summary of the method: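 Cytotoxicity was tracked continuously in HEK293 cells by a DNA-binding dye excluded from viable cells. Compounds were transferred in DMSO 5 h after seeding; fluorescence was recorded at intervals up to 40 h.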
Tags tell the direction and shape of the fitted curve or compound fluorescence and quenching.

COC(=O)CC(C)=O
Potency [1]: inactive | Potency [2]: inactive

CC(C=O)c1ccccc1 (stereo not given)
Potency [3]: inactive

Oc1cn2c(n1)Nc1ccc(Cl)c(Cl)c1C2
Potency [4]: inactive

O=C1CC[C@H](C(=O)N2CCCCC2)N1
Potency [5]: inconclusive: 2.98 µM [cytotoxic, full curve]

NC(CO)C(=O)NNCc1ccc(O)c(O)c1O (stereo not given)
Potency [6]: inconclusive: 33.5 µM [cytotoxic, single point] | Potency [7]: inconclusive: 26.6 µM [cytotoxic, partial curve] | activation [8]: inconclusive: 31.2% [at 42.5 µM] | Potency [9]: inactive

CC(C)(C)NCC(O)c1cc(O)cc(O)c1 (stereo not given)
Potency [1]: inactive

CN(C)CCN(C)CCN(C)C
Potency [2]: inconclusive: 2.12 µM [rising, partial curve, poor fit]

C1=CCCC1
Potency [10]: inconclusive: 54.9 µM [rising, single point]

CCCCCCC1(C)CCC(=O)O1 (stereo not given)
Potency [11]: inactive

Nc1c2c(nc3c1CCC3)CCCC2
Potency [1]: inactive

O=C(O)/C=C\C(=O)O
Potency [12]: inactive

Nc1ccc(F)cc1F
Potency [13]: inactive

O=S(=O)(O)c1ccc2c(N=Nc3ccc(S(=O)(=O)O)c4ccccc34)c(O)c(S(=O)(=O)O)cc2c1
Potency [14]: active: 22.1 µM | Potency [11]: inconclusive: 26.6 µM [inhibitor, partial curve] | activity, negative = inhibition [11]: inactive: -4.92% [at 8.44 µM] | Potency [5]: active: 9.44 µM and inconclusive: 3.81 µM [cytotoxic, single point] | Potency [9]: inconclusive: 3.39 µM [cytotoxic, partial curve]

COc1ccc(/C=N/NC(=O)c2ccncc2)cc1OC
Potency [3]: inactive

CCCCC(CC)COC(=O)c1ccccc1 (stereo not given)
Potency [11]: inactive | Potency [15]: inactive

CC(C)CCOCCC(C)C
Potency [9]: inactive

CC(=O)Nc1ccc(S(=O)(=O)Nc2cc(C)on2)cc1
Potency [10]: inactive

CNC(=O)Oc1ccc2c(c1)[C@]1(C)CCN(C)[C@@H]1N2C
Potency [2]: inactive

O=c1c(O)c(O)c1=O
Potency [5]: inactive | activation [8]: inconclusive: 22.6%

Nc1ccccn1
viability change, negative = cytotoxic [14]: inconclusive: 21% | Potency [6]: inactive | Potency [7]: inconclusive: 14.6 µM [cytotoxic, single point]

CCCCCC=O
Potency [6]: inactive | Potency [16]: inactive

CCN(CC)CC(=O)Oc1ccc(NC(C)=O)cc1
Potency [1]: inactive | Potency [3]: inactive

O=C[C@H](O)[C@H](O)[C@H](O)CO
Potency [13]: inactive

CC(=O)CCc1ccc(O)cc1
Potency [14]: inactive | Potency [16]: inactive | Potency [8]: inactive

C=CC(=O)OCCN(CC)CC
Potency [13]: inconclusive: 30.9 µM [falling, partial curve]

C/C(=N/NC(=O)c1ccncc1)C(=O)O
Potency [17]: inconclusive: 26.8 µM [activator, single point] | Potency [6]: inactive | Potency [18]: inactive

COCCOCCOC
Potency [15]: inconclusive: 11 µM [rising, partial curve, poor fit] | Potency [13]: inactive

CCC(=O)OCCC(C)CCC=C(C)C (stereo not given)
Potency [7]: inactive

CC/C=C\CCCCCCCCCCOC(C)=O
Potency [19]: inconclusive: 21.9 µM [falling, single point]

CC(C)c1cccc(C(C)C)c1
Potency [7]: inactive

O=S(=O)(O)c1cccc2c(S(=O)(=O)O)cccc12
Potency [4]: inactive | Potency [5]: inconclusive: 3.85 µM [rising, partial curve, poor fit]

Oc1cc2ccccc2cc1O
Potency [10]: inconclusive: 61.6 µM [rising, single point] | Potency [2]: inconclusive: 7.76 µM [falling, partial curve, poor fit]

CN(C)C
Potency [20]: inconclusive: 62.6 µM [activator, single point]

C[Si](C)(C)O[Si](O)(O)O
Potency [14]: inactive | Potency [16]: inactive

N[C@@H](Cc1cc(I)c(Oc2ccc(O)c(I)c2)c(I)c1)C(=O)O
Potency [19]: inconclusive: 32.2 µM [falling, partial curve, poor fit] | Potency [2]: inactive

CCC(C)c1nccnc1OC (stereo not given)
Potency [12]: inactive

Nc1[nH]c(=O)ncc1F
Potency [14]: inactive

CC(=O)c1ccc(O)cc1
Potency [14]: inactive | Potency [20]: inconclusive: 61.6 µM [activator, single point]

CC(C)(CO)[C@@H](O)C(=O)NCCC(=O)O
Potency [15]: inactive

O=Cc1ccccc1Cl
Potency [15]: inactive | Potency [13]: inactive | Potency [8]: inactive

C=C(C)OC(C)=O
Potency [11]: inactive | Potency [19]: inactive | Potency [18]: inactive

CCCCOCCCC
Potency [19]: inactive | Potency [20]: inconclusive: 61.1 µM [activator, single point]

CC(C)=CCCC(C)CC(=O)O (stereo not given)
Potency [14]: inactive | Potency [12]: inconclusive: 1.74 µM [cytotoxic, full curve, poor fit] | Potency [3]: inactive | Potency [9]: inconclusive: 19.3 µM [rising, partial curve]

FB(F)F
Potency [7]: inactive | Potency [9]: inconclusive: 0.286 µM [cytotoxic, single point]

O=C(O)COC(=O)Cc1ccccc1Nc1c(Cl)cccc1Cl
Potency [16]: inconclusive: 29.8 µM [cytotoxic]

O=Cc1ccc(CO)o1
Potency [13]: inactive | Potency [8]: inconclusive: 1.09 µM [cytotoxic, full curve, poor fit]

CS(=O)(=O)c1ccc(Cl)cc1
Potency [8]: inactive

CC(=O)N1CCN(c2ccc(O)cc2)CC1
Potency [13]: inactive | Potency [3]: inactive | Potency [8]: inactive

C=CC(C)(C)O
Potency [10]: inactive
